Data published in article PMC9911399, “Two distinct binding modes provide the RNA-binding protein RbFox with extraordinary sequence specificity”.
Substitutions are numbered along the chain they refer to; changes in the protein carry UniProt numbers. The list shows a part of the results.

T1: RBFOX1 RRM (Homo sapiens, UniProt Q9NWB1 109-208)
T1 sequence: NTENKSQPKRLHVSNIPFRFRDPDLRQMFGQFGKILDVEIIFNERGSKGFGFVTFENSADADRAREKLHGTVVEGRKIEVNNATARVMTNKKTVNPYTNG

B1: UGAAUCA (DNA:RNA)
RNA: GGGAGACCGGAAUUCAGAUUGUCCUGAAUCAUUAAAUCCCGUCGUAGCCACCA
DNA 1: CAATCTGAATTCCGGTCTCCC
DNA 2: TGGTGGCTACGACGGGATT
B2: ACAGAAA (DNA:RNA)
RNA: B1 RNA with U25A, G26C, A28G, U29A, C30A
DNA 1: CAATCTGAATTCCGGTCTCCC
DNA 2: TGGTGGCTACGACGGGATT
B3: UAACUGU (DNA:RNA)
RNA: B1 RNA with G26A, A28C, C30G, A31U
DNA 1: CAATCTGAATTCCGGTCTCCC
DNA 2: TGGTGGCTACGACGGGATT
B4: GACCAUC (DNA:RNA)
RNA: GGGAGACCGGAAUUCAGAUUGUCCGACCAUCUUAAAUCCCGUCGUAGCCACCA
DNA 1: CAATCTGAATTCCGGTCTCCC
DNA 2: TGGTGGCTACGACGGGATT
B5: AGGGUGA (DNA:RNA)
RNA: B1 RNA with U25A, A27G, A28G, C30G
DNA 1: CAATCTGAATTCCGGTCTCCC
DNA 2: TGGTGGCTACGACGGGATT
B6: UUAAUGA (DNA:RNA)
RNA: B1 RNA with G26U, C30G
DNA 1: CAATCTGAATTCCGGTCTCCC
DNA 2: TGGTGGCTACGACGGGATT
B7: AUUCUCU (DNA:RNA)
RNA: B1 RNA with U25A, G26U, A27U, A28C, A31U
DNA 1: CAATCTGAATTCCGGTCTCCC
DNA 2: TGGTGGCTACGACGGGATT
B8: GAAAAUC (DNA:RNA)
RNA: B4 RNA with C27A, C28A
DNA 1: CAATCTGAATTCCGGTCTCCC
DNA 2: TGGTGGCTACGACGGGATT
B9: GAUUAUU (DNA:RNA)
RNA: B4 RNA with C27U, C28U, C31U
DNA 1: CAATCTGAATTCCGGTCTCCC
DNA 2: TGGTGGCTACGACGGGATT
B10: GACAUUC (DNA:RNA)
RNA: B4 RNA with C28A, A29U
DNA 1: CAATCTGAATTCCGGTCTCCC
DNA 2: TGGTGGCTACGACGGGATT
B11: GAGAGAU (DNA:RNA)
RNA: B4 RNA with C27G, C28A, A29G, U30A, C31U
DNA 1: CAATCTGAATTCCGGTCTCCC
DNA 2: TGGTGGCTACGACGGGATT
B12: GGGAUUG (DNA:RNA)
RNA: B1 RNA with U25G, A27G, C30U, A31G
DNA 1: CAATCTGAATTCCGGTCTCCC
DNA 2: TGGTGGCTACGACGGGATT
B13: CGACUGU (DNA:RNA)
RNA: B1 RNA with U25C, A28C, C30G, A31U
DNA 1: CAATCTGAATTCCGGTCTCCC
DNA 2: TGGTGGCTACGACGGGATT
B14: GGCCAAG (DNA:RNA)
RNA: B4 RNA with A26G, U30A, C31G
DNA 1: CAATCTGAATTCCGGTCTCCC
DNA 2: TGGTGGCTACGACGGGATT
B15: CUAUGUU (DNA:RNA)
RNA: B4 RNA with G25C, A26U, C27A, C28U, A29G, C31U
DNA 1: CAATCTGAATTCCGGTCTCCC
DNA 2: TGGTGGCTACGACGGGATT
B16: ACCUUGC (DNA:RNA)
RNA: B4 RNA with G25A, A26C, C28U, A29U, U30G
DNA 1: CAATCTGAATTCCGGTCTCCC
DNA 2: TGGTGGCTACGACGGGATT
B17: CUUGAGA (DNA:RNA)
RNA: B4 RNA with G25C, A26U, C27U, C28G, U30G, C31A
DNA 1: CAATCTGAATTCCGGTCTCCC
DNA 2: TGGTGGCTACGACGGGATT
B18: ACGCUCC (DNA:RNA)
RNA: B4 RNA with G25A, A26C, C27G, A29U, U30C
DNA 1: CAATCTGAATTCCGGTCTCCC
DNA 2: TGGTGGCTACGACGGGATT
B19: AUCUUUA (DNA:RNA)
RNA: B4 RNA with G25A, A26U, C28U, A29U, C31A
DNA 1: CAATCTGAATTCCGGTCTCCC
DNA 2: TGGTGGCTACGACGGGATT
B20: CAAUGCC (DNA:RNA)
RNA: B4 RNA with G25C, C27A, C28U, A29G, U30C
DNA 1: CAATCTGAATTCCGGTCTCCC
DNA 2: TGGTGGCTACGACGGGATT

Each binder was assayed against T1, RBFOX1 RRM (assay: EMSA; HiTS-Eq, 1 nM pool, 10 min; buffer printed only for the single-RNA assays: 10 mM Tris pH 7.5, 150 mM NaCl, 3.4 mM EDTA, 0.001% NP-40, 30 C). Settings: tags: His6 N-terminal (pET28a); label: 5' 32P.
Outline: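 Relative association constants, normalised to the cognate motif, were derived by comparing read counts of each RNA species with those of the control reaction. The RNA sequenced was the free fraction, separated by 8% native PAGE after a 10 min equilibration in 50 µL of 1 nM 5′-radiolabelled RNA (7 randomized nucleotides) with increasing concentrations of purified wild-type or mutant RbFox RRM.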

Row | Binder | binding signal
1 | B1 | 0.0114 KA relative to UGCAUGU
2 | B2 | 0.000293 KA relative to UGCAUGU
3 | B3 | 0.0136 KA relative to UGCAUGU
4 | B4 | 0.00408 KA relative to UGCAUGU
5 | B5 | 0.0166 KA relative to UGCAUGU
6 | B6 | 0.00982 KA relative to UGCAUGU
7 | B7 | 0.00662 KA relative to UGCAUGU
8 | B8 | 0.00432 KA relative to UGCAUGU
9 | B9 | 0.00707 KA relative to UGCAUGU
10 | B10 | 0.00535 KA relative to UGCAUGU
11 | B11 | 0.0118 KA relative to UGCAUGU
12 | B12 | 0.0593 KA relative to UGCAUGU
13 | B13 | 0.0174 KA relative to UGCAUGU
14 | B14 | 0.00894 KA relative to UGCAUGU
15 | B15 | 0.0104 KA relative to UGCAUGU
16 | B16 | 0.0134 KA relative to UGCAUGU
17 | B17 | 0.0141 KA relative to UGCAUGU
18 | B18 | 0.0063 KA relative to UGCAUGU
19 | B19 | 0.0011 KA relative to UGCAUGU
20 | B20 | 0.00351 KA relative to UGCAUGU
